Data published in article PMC9911399, “Two distinct binding modes provide the RNA-binding protein RbFox with extraordinary sequence specificity”.
Changes are numbered by the printed parent chain; changes in the protein carry UniProt numbers. This is one part of the list.

T1: RBFOX1 RRM RbFoxmut (Fox-RRM*) (Homo sapiens, UniProt Q9NWB1 109-208, R118D;E147R;N151S;E152T)
T1 sequence: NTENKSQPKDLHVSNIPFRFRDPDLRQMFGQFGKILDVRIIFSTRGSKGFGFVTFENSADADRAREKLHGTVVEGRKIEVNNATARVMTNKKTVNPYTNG

B1: AAUUGAG (DNA:RNA)
RNA: GGGAGACCGGAAUUCAGAUUGUCCAAUUGAGUUAAAUCCCGUCGUAGCCACCA
DNA 1: CAATCTGAATTCCGGTCTCCC
DNA 2: TGGTGGCTACGACGGGATT
B2: UCUAGCC (DNA:RNA)
RNA: B1 RNA with A25U, A26C, U28A, A30C, G31C
DNA 1: CAATCTGAATTCCGGTCTCCC
DNA 2: TGGTGGCTACGACGGGATT
B3: GGUGGUC (DNA:RNA)
RNA: B1 RNA with A25G, A26G, U28G, A30U, G31C
DNA 1: CAATCTGAATTCCGGTCTCCC
DNA 2: TGGTGGCTACGACGGGATT
B4: CACUACG (DNA:RNA)
RNA: B1 RNA with A25C, U27C, G29A, A30C
DNA 1: CAATCTGAATTCCGGTCTCCC
DNA 2: TGGTGGCTACGACGGGATT
B5: UCCUAUA (DNA:RNA)
RNA: B1 RNA with A25U, A26C, U27C, G29A, A30U, G31A
DNA 1: CAATCTGAATTCCGGTCTCCC
DNA 2: TGGTGGCTACGACGGGATT
B6: GAACUUA (DNA:RNA)
RNA: B1 RNA with A25G, U27A, U28C, G29U, A30U, G31A
DNA 1: CAATCTGAATTCCGGTCTCCC
DNA 2: TGGTGGCTACGACGGGATT
B7: CGGGCGA (DNA:RNA)
RNA: GGGAGACCGGAAUUCAGAUUGUCCCGGGCGAUUAAAUCCCGUCGUAGCCACCA
DNA 1: CAATCTGAATTCCGGTCTCCC
DNA 2: TGGTGGCTACGACGGGATT
B8: GACGAUG (DNA:RNA)
RNA: B1 RNA with A25G, U27C, U28G, G29A, A30U
DNA 1: CAATCTGAATTCCGGTCTCCC
DNA 2: TGGTGGCTACGACGGGATT
B9: AUCUCGG (DNA:RNA)
RNA: B1 RNA with A26U, U27C, G29C, A30G
DNA 1: CAATCTGAATTCCGGTCTCCC
DNA 2: TGGTGGCTACGACGGGATT
B10: GUGUACG (DNA:RNA)
RNA: B1 RNA with A25G, A26U, U27G, G29A, A30C
DNA 1: CAATCTGAATTCCGGTCTCCC
DNA 2: TGGTGGCTACGACGGGATT
B11: GGAAAUU (DNA:RNA)
RNA: B7 RNA with C25G, G27A, G28A, C29A, G30U, A31U
DNA 1: CAATCTGAATTCCGGTCTCCC
DNA 2: TGGTGGCTACGACGGGATT
B12: CAUUCUG (DNA:RNA)
RNA: B1 RNA with A25C, G29C, A30U
DNA 1: CAATCTGAATTCCGGTCTCCC
DNA 2: TGGTGGCTACGACGGGATT
B13: AUAAGUC (DNA:RNA)
RNA: B1 RNA with A26U, U27A, U28A, A30U, G31C
DNA 1: CAATCTGAATTCCGGTCTCCC
DNA 2: TGGTGGCTACGACGGGATT
B14: CAUCUAA (DNA:RNA)
RNA: B1 RNA with A25C, U28C, G29U, G31A
DNA 1: CAATCTGAATTCCGGTCTCCC
DNA 2: TGGTGGCTACGACGGGATT
B15: GGAGGAG (DNA:RNA)
RNA: B1 RNA with A25G, A26G, U27A, U28G
DNA 1: CAATCTGAATTCCGGTCTCCC
DNA 2: TGGTGGCTACGACGGGATT
B16: AAGCGCU (DNA:RNA)
RNA: B1 RNA with U27G, U28C, A30C, G31U
DNA 1: CAATCTGAATTCCGGTCTCCC
DNA 2: TGGTGGCTACGACGGGATT
B17: CUAUGUG (DNA:RNA)
RNA: B1 RNA with A25C, A26U, U27A, A30U
DNA 1: CAATCTGAATTCCGGTCTCCC
DNA 2: TGGTGGCTACGACGGGATT
B18: AUGGGGC (DNA:RNA)
RNA: B7 RNA with C25A, G26U, C29G, A31C
DNA 1: CAATCTGAATTCCGGTCTCCC
DNA 2: TGGTGGCTACGACGGGATT
B19: AGCUAAU (DNA:RNA)
RNA: B1 RNA with A26G, U27C, G29A, G31U
DNA 1: CAATCTGAATTCCGGTCTCCC
DNA 2: TGGTGGCTACGACGGGATT
B20: UGUAUCC (DNA:RNA)
RNA: B1 RNA with A25U, A26G, U28A, G29U, A30C, G31C
DNA 1: CAATCTGAATTCCGGTCTCCC
DNA 2: TGGTGGCTACGACGGGATT
B21: UUUUGUC (DNA:RNA)
RNA: B1 RNA with A25U, A26U, A30U, G31C
DNA 1: CAATCTGAATTCCGGTCTCCC
DNA 2: TGGTGGCTACGACGGGATT
B22: GGCCUCG (DNA:RNA)
RNA: B1 RNA with A25G, A26G, U27C, U28C, G29U, A30C
DNA 1: CAATCTGAATTCCGGTCTCCC
DNA 2: TGGTGGCTACGACGGGATT
B23: GAAAUUA (DNA:RNA)
RNA: B1 RNA with A25G, U27A, U28A, G29U, A30U, G31A
DNA 1: CAATCTGAATTCCGGTCTCCC
DNA 2: TGGTGGCTACGACGGGATT
B24: CGCCUGA (DNA:RNA)
RNA: B7 RNA with G27C, G28C, C29U
DNA 1: CAATCTGAATTCCGGTCTCCC
DNA 2: TGGTGGCTACGACGGGATT
B25: UGGCAGC (DNA:RNA)
RNA: B7 RNA with C25U, G28C, C29A, A31C
DNA 1: CAATCTGAATTCCGGTCTCCC
DNA 2: TGGTGGCTACGACGGGATT
B26: UCUGUCC (DNA:RNA)
RNA: B1 RNA with A25U, A26C, U28G, G29U, A30C, G31C
DNA 1: CAATCTGAATTCCGGTCTCCC
DNA 2: TGGTGGCTACGACGGGATT
B27: UUGUUCU (DNA:RNA)
RNA: B1 RNA with A25U, A26U, U27G, G29U, A30C, G31U
DNA 1: CAATCTGAATTCCGGTCTCCC
DNA 2: TGGTGGCTACGACGGGATT
B28: AGUAUAC (DNA:RNA)
RNA: B1 RNA with A26G, U28A, G29U, G31C
DNA 1: CAATCTGAATTCCGGTCTCCC
DNA 2: TGGTGGCTACGACGGGATT
B29: UCUAAUU (DNA:RNA)
RNA: B1 RNA with A25U, A26C, U28A, G29A, A30U, G31U
DNA 1: CAATCTGAATTCCGGTCTCCC
DNA 2: TGGTGGCTACGACGGGATT
B30: CGAGACA (DNA:RNA)
RNA: B7 RNA with G27A, C29A, G30C
DNA 1: CAATCTGAATTCCGGTCTCCC
DNA 2: TGGTGGCTACGACGGGATT
B31: CUCUAUG (DNA:RNA)
RNA: B1 RNA with A25C, A26U, U27C, G29A, A30U
DNA 1: CAATCTGAATTCCGGTCTCCC
DNA 2: TGGTGGCTACGACGGGATT

Each binder was assayed against T1, RBFOX1 RRM RbFoxmut (Fox-RRM*) (assay: EMSA; HiTS-Eq, 1 nM pool, 10 min; buffer printed only for the single-RNA assays: 10 mM Tris pH 7.5, 150 mM NaCl, 3.4 mM EDTA, 0.001% NP-40, 30 C). Details: tags: His6 N-terminal (pET28a); label: 5' 32P.
Procedure, shortened: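 These values rest on relative association constants, computed from read-count changes of each RNA species versus the control reaction and normalised to the cognate motif. Reads came from free RNA recovered by 8% native PAGE after purified RbFox RRM (wild type or mutant) at increasing concentrations was equilibrated for 10 min in 50 µL with 1 nM of a 5′-radiolabelled pool with 7 randomized nucleotides and DNA-annealed flanks.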

Row | Binder | binding signal
1 | B1 | 0.102 KA relative to UGCAUGU
2 | B2 | 0.104 KA relative to UGCAUGU
3 | B3 | 0.18 KA relative to UGCAUGU
4 | B4 | 0.118 KA relative to UGCAUGU
5 | B5 | 0.113 KA relative to UGCAUGU
6 | B6 | 0.0792 KA relative to UGCAUGU
7 | B7 | 0.0794 KA relative to UGCAUGU
8 | B8 | 0.0965 KA relative to UGCAUGU
9 | B9 | 0.0955 KA relative to UGCAUGU
10 | B10 | 0.441 KA relative to UGCAUGU
11 | B11 | 0.0758 KA relative to UGCAUGU
12 | B12 | 0.0859 KA relative to UGCAUGU
13 | B13 | 0.088 KA relative to UGCAUGU
14 | B14 | 0.0986 KA relative to UGCAUGU
15 | B15 | 0.0853 KA relative to UGCAUGU
16 | B16 | 0.0814 KA relative to UGCAUGU

Row | Binder | binding signal
17 | B17 | 0.134 KA relative to UGCAUGU
18 | B18 | 0.0737 KA relative to UGCAUGU
19 | B19 | 0.0781 KA relative to UGCAUGU
20 | B20 | 0.15 KA relative to UGCAUGU
21 | B21 | 0.229 KA relative to UGCAUGU
22 | B22 | 0.228 KA relative to UGCAUGU
23 | B23 | 0.0829 KA relative to UGCAUGU
24 | B24 | 0.105 KA relative to UGCAUGU
25 | B25 | 0.0718 KA relative to UGCAUGU
26 | B26 | 0.0789 KA relative to UGCAUGU
27 | B27 | 0.113 KA relative to UGCAUGU
28 | B28 | 0.116 KA relative to UGCAUGU
29 | B29 | 0.0829 KA relative to UGCAUGU
30 | B30 | 0.0616 KA relative to UGCAUGU
31 | B31 | 0.147 KA relative to UGCAUGU
